# Test results published in PubChem BioAssay AID485294 (National Center for Advancing Translational Sciences (NCATS), 2010).
# Hit rate of the full screen: of about 370,000 compounds, about 150 (0.041%) were called active. This list was built around the results that the source calls inconclusive (neither active nor inactive); the mix of calls is not that of the screen. The call rests on the fitted dose curve; in most records, active means well fitted inhibition curve with a large enough effect; inconclusive means small, poorly fitted or top-dose-only effect; inactive means flat fitted curve, though single readings scatter. No potency is given beside an inconclusive call; the fits are too rough.
# Target: Beta-lactamase (Escherichia coli (strain K12)) (UniProt P00811)
# Test: qHTS Inhibitors of AmpC Beta-Lactamase (assay with detergent); further: nearly all actives have a fitted effect of over 25% in size;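 on activity change, negative = inhibition: 0% = no-compound wells and -100% = no-enzyme wells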
# Conditions: AmpC hydrolysis of nitrocefin, absorbance 480 nm, 0.01% Triton; activity change, negative = inhibition: at 114 µM (top of the series)
# Experimental: NIH Molecular Libraries Probe Production Network [MLPCN] NIH Chemical Genomics Center [NCGC] Assay Provider: Professor Brian Shoichet, UCSF Assay Overview: This aggregation profiling approach exploits the sensitivity of aggregate formation to detergent. Inhibition of b-lactamase is measured in the presence and absence of 0.01% Triton X-100. This particular assay had the prescence of 0.01% Triton X-100. See Pubchem assay "Promiscuous and Specific Inhibitors of AmpC Beta-Lactamase (assay without detergent)" for related screen. Compounds that inhibit only in the absence of detergent are considered likely promiscuous aggregators. A screen of 1,030 compounds was performed in Brian Shoichet's lab in 96-well format. AmpC activity was measured by following the absorbance at 480 nm. Nitrocefin is a chromogenic substrate: while nitrocefin is yellow (lmax 390 nm), the product of its hydrolysis is red (lmax 486 nm, 17,000 M-1). AmpC beta lactamase was provided by Shoichet Lab, UCSF.
# Buffer: 20 mM phosphate buffer, pH 7.0 Triton X-100: No Detergent screen: 0.0001%, Detergent screen: 0.01%. Reagents/Controls: Buffer in columns 3 and 4 as negative control (no enzyme). 5.3 nM AmpC in columns 1, 2, 5-48. Titration of UCSF compound 9 control (from 10 mM, then 1:2) pin-transferred to column 2. Column 1 is neutral (100% activity). Assay Steps: Six uL of reagents were dispensed to 1536-well Greiner black clear bottom plates. Compounds and controls (23 nL) were transferred via Kalypsys PinTool. The plates were incubated for 15 min at room temperature, and then 2 uL of 800 uM solution of nitrocefin was added to start the reaction. The plates were immediately transferred to and read every 20 seconds for 4 min on ViewLux (Perkin-Elmer) High-throughput CCD imager using 480 nm absorbance protocol. During dispense, reagent bottles were kept submerged into 4 deg C water bath. Keywords: NIH Roadmap, MLSCN, MLI, MLSMR, qHTS, NCGC, AmpC Beta-Lactamase, Aggregation
# Potency means the concentration at half of the fitted maximal effect; tags describe the fitted curve by direction and shape.
# Sequence of UniProt P00811 (P00811 whole entry, looked up): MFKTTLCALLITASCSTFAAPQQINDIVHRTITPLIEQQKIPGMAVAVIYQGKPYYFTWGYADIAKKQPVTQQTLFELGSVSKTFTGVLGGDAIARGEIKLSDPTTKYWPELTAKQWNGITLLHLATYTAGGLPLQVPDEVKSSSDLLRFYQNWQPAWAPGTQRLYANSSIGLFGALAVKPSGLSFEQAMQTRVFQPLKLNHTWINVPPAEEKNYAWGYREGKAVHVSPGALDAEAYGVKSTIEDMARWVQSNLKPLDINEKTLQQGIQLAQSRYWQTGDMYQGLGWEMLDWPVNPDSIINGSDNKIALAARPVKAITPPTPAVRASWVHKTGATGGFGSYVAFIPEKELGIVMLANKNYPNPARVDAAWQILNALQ
SMILES,Potency,"activity change, negative = inhibition"
COc1ccc(NC(=S)N(C(C)C)C2CCN(C(C)C)CC2)cc1Cl,"inconclusive [inhibitor, full curve, poor fit]",–
CSc1ccc(CN(C)C(=O)c2cc(S(=O)(=O)NCc3ccccc3)ccc2C)cc1,"inconclusive [inhibitor, partial curve, poor fit]",–
CCC(=O)Nc1c2c(nn1-c1ccccc1)CSC2,"inconclusive [inhibitor, full curve]",–
Cc1cccc(C)c1NC(=O)Cn1cnc2c(=O)n(C)c(=O)n(C)c21,"inconclusive [inhibitor, full curve, poor fit]",–
Cc1cc(C(=O)N[C@H](c2ccccc2)[C@@]2(C)C[C@@H]2[C@@H](C)C(=O)Nc2ccc3ccccc3c2)no1,"inconclusive [inhibitor, partial curve, poor fit]",–
N#Cc1cn(CC(=O)NCC2CCCO2)c2ccccc12 (stereo not given),"inconclusive [inhibitor, full curve, poor fit]",–
CCOC(=O)C1CCN(C(=O)COC(=O)CSc2ccc([N+](=O)[O-])cc2)CC1,"inconclusive [inhibitor, single point]",–
CSc1nc2nc(-c3ccccc3)cc(C(F)(F)F)n2n1,"inconclusive [inhibitor, full curve, poor fit]",–
CCC(=O)c1cn(CC(=O)Nc2cc(C)ccc2C)c2ccccc12,"inconclusive [inhibitor, full curve, poor fit]",–
O=C(Cc1ccc(S(=O)(=O)N2CCOCC2)s1)NCCOc1ccccc1F,"inconclusive [inhibitor, full curve, poor fit]",–
CCn1c(SCC(=O)NC2CCCCC2)nc2ccccc2c1=O,"inconclusive [inhibitor, partial curve]",–
CN(C)/C=C(/C(=O)c1ccc(Cl)cc1)S(=O)(=O)c1ccc(Cl)cc1,–,inactive: -17.8%
CCOC(=O)N1CCN(C(=O)COc2cccc3c2CCN(Cc2cccc(C)c2)C3=O)CC1,"inconclusive [inhibitor, full curve, poor fit]",–
Cc1nnc(SCc2ccc(C(=O)Nc3cc(Cl)ccc3C)cc2)s1,–,inactive: -16.6%
CN1C2CCC1CC(NS(=O)(=O)c1cccc(C(F)(F)F)c1)C2 (stereo not given),"inconclusive [inhibitor, partial curve]",–
COc1ccc(C(=O)NC2CC2)cc1OC1CCN(C/C=C/c2ccccc2)CC1,"inconclusive [inhibitor, partial curve]",–
CCOC(=O)C1=C(COC(=O)c2sccc2C)NC(=O)NC1C (stereo not given),"inconclusive [inhibitor, full curve, poor fit]",–
CCn1c(CCCOc2ccc(Cl)cc2Cl)nnc1SCC(=O)Nc1cccc(F)c1,"inconclusive [inhibitor, single point]",–
Cc1ccc(NC(=O)CCC(=O)N2CCN(S(=O)(=O)c3ccc(C)cc3)CC2)cc1,"inconclusive [inhibitor, single point]",–
CCOc1ccc(N2CC(C(=O)NCc3ccc(C)n3C)CC2=O)cc1 (stereo not given),"inconclusive [inhibitor, full curve, poor fit]",–
C=CCNc1ncnc2c1cnn2-c1cccc(C)c1,"inconclusive [inhibitor, full curve, poor fit]",–
COc1cc(/C=C/C(=O)O)ccc1OS(=O)(=O)c1ccc(C)cc1,"inconclusive [inhibitor, partial curve, poor fit]",–

SMILES,Potency,"activity change, negative = inhibition"
Cn1c(=O)c(=O)n(C)c2cc(N3CCCC3)c(NS(=O)(=O)c3ccc(F)cc3)cc21,–,inactive: -5.22%
Cc1ccc(NC(=O)c2snc3ccc(Cl)cc23)cc1C,"inconclusive [inhibitor, partial curve, poor fit]",–
O=C(NN1C(=O)/C(=C/c2cccs2)SC1=S)c1cccnc1,"inconclusive [inhibitor, partial curve, poor fit]",–
COc1ccc2nc3ccccc3nc2c1NC(=O)c1ccc(Br)cc1,"inconclusive [inhibitor, partial curve, poor fit]",–
CCOC(=O)N1CCN(C(=O)COc2cc(=O)n(C)c3ccccc23)CC1,"inconclusive [inhibitor, single point]",–
CCOC(=O)C1(Cc2ccc(Cl)cc2)CCN(Cc2ccon2)CC1,–,inactive: 1.56%
CCOc1cc(CN2CCN(C(=O)c3cccc4ccccc34)CC2)ccc1OC,–,inactive: 6.76%
Cc1cc(OCc2ccc(C(=O)NN=C3CCCC3)cc2)ccc1Cl,–,inactive: -13.4%
COC(=O)c1ccc(-c2sc3nc(N4CCOCC4)c4c(c3c2N)CC(C)(C)OC4)o1,"inconclusive [inhibitor, single point]",–
CC12CCC(=O)N1C(C(=O)O)Cc1c2[nH]c2ccccc12 (stereo not given),"inconclusive [inhibitor, partial curve]",–
Cc1nnc(SCC(=O)NC2CC2)n1-c1ccccc1,–,inactive: -0.461%
O=C(COc1ccccc1Cl)NC(=O)NC1CCCC1,–,inactive: -10.7%
Cc1cc(C)c2c(n1)SCC(=O)N2CC(=O)Nc1cc(F)ccc1F,"inconclusive [inhibitor, full curve, poor fit]",–
O=C(CSc1nnc(Cc2cccs2)n1Cc1ccco1)Nc1ccc(Cl)cc1Cl,"inconclusive [inhibitor, partial curve]",–
O=C(CSc1nccn1-c1ccc(Cl)cc1)Nc1cccc2ccccc12,–,inactive: 5.94%
Cc1ccc(C)c(N(CC(=O)N/N=C/c2ccc(-c3ccc([N+](=O)[O-])cc3)o2)S(=O)(=O)c2ccccc2)c1,–,inactive: -0.468%
CCn1c(SCC(=O)N2CCN(c3ccccc3)CC2)nc2c(c1=O)SC(C)C2 (stereo not given),–,inactive: -6.53%
COc1cccc(-n2ccnc2SCC(=O)Nc2ccc(Cl)c(Cl)c2)c1,–,inactive: 1.69%
CNC(=O)COC(=O)c1cc(=O)[nH]c2ccccc12,"inconclusive [inhibitor, partial curve]",–
CCN(CC(=O)Nc1c(F)cccc1F)C(=O)Cc1ccc2c(c1)OCCO2,"inconclusive [inhibitor, full curve, poor fit]",–
O=C(Nc1nc(-c2ccccn2)cs1)c1ccc(-c2ccccc2F)o1,–,inactive: -3.47%
COc1ccc(C(=O)C(C)OC(=O)c2cccc(S(=O)(=O)Nc3cc(Cl)c(OC)cc3OC)c2)cc1 (stereo not given),"inconclusive [inhibitor, single point]",–

SMILES,Potency,"activity change, negative = inhibition"
CCOc1cccc(C2C(C#N)=C(N)Oc3cc(C)n(Cc4ccccn4)c(=O)c32)c1OCC (stereo not given),"inconclusive [inhibitor, partial curve]",–
Cc1cccc(C)c1NC(=O)CSc1ncc2c(n1)-c1ccc(Cl)cc1N(Cc1ccccc1)S2(=O)=O,–,inactive: -1.01%
Cc1ccc(C2Oc3ccccc3C3=C2C(c2cccs2)n2ncnc2N3)cc1 (stereo not given),"inconclusive [inhibitor, single point]",–
Cc1cc([N+](=O)[O-])nn1CCCC(=O)Nc1cccc(Cl)c1Cl,–,inactive: 9.59%
O=c1c2ccccc2oc2nc(-c3ccco3)n(CCc3ccccc3)c(=O)c12,"inconclusive [inhibitor, full curve]",–
COCCCNC(=O)c1ccc(Cn2c(=O)[nH]c3ccccc3c2=O)cc1,"inconclusive [inhibitor, partial curve, poor fit]",–
COc1ccccc1NS(=O)(=O)c1ccc2nc(CCl)[nH]c2c1,–,inactive: -5.54%
COc1ccccc1-n1c(SCC(=O)Nc2ccc(NC(C)=O)cc2)nc2c([nH]c3ccccc32)c1=O,"inconclusive [inhibitor, full curve, poor fit]",–
CC(=O)Nc1nc2ccccc2n1CCN1CCOCC1,"inconclusive [inhibitor, full curve, poor fit]",–
C/C(N)=C(/C#N)C(=O)CSc1nc2scc(-c3ccc(F)cc3)c2c(=O)n1C,–,inactive: 2.41%
CCCOc1ccc(/C=C/c2c([N+](=O)[O-])c(=O)n(C)c(=O)n2C)cc1,–,inactive: 4.67%
CCc1ccc(CNC(=O)C2CCCN(c3nnc(C)c4c(C)n(-c5ccc(OC)cc5)nc34)C2)cc1 (stereo not given),–,inactive: 22.5%
Cc1nn(C)c(Oc2cccc(C(F)(F)F)c2)c1C#N,"inconclusive [inhibitor, full curve, poor fit]",–
CCC1(c2ccccc2)NC(=O)N(CC(=O)NCc2ccc(F)cc2)C1=O (stereo not given),"inconclusive [inhibitor, partial curve]",–
N/C(=N\OC(=O)c1ccco1)c1ccccn1,–,inactive: 2.98%
Cc1ccc(NC(=O)c2cc3nc(-c4ccc5c(c4)OCO5)cc(C(F)(F)F)n3n2)cc1Cl,–,inactive: 1.02%
CC[C@H]1OC(=O)[C@H](C)[C@@H](O[C@H]2C[C@@](C)(OC)[C@@H](O)[C@H](C)O2)[C@H](C)[C@@H](O[C@@H]2O[C@H](C)C[C@H](N(C)C)[C@H]2O)[C@](C)(O)C[C@@H](C)C(=O)[C@H](C)[C@@H](O)[C@]1(C)O,"inconclusive [inhibitor, full curve, poor fit]",–
Cc1cc(/C=C(\C#N)C(=O)Nc2ccccc2)c(C)n1-c1ccc2c(c1)OCO2,"inconclusive [inhibitor, single point]",–
CCN1C(=O)/C(=C/c2cnn(CC)c2C)SC1=S,"inconclusive [inhibitor, full curve, poor fit]",–
O=C(c1cccc(OC(F)F)c1)N1CCN(c2ncccn2)CC1,"inconclusive [inhibitor, full curve]",–
CN(C)C(=O)c1ccc(NC(=O)c2ccccc2-c2ccccc2)cc1,"inconclusive [inhibitor, partial curve]",–
